The record followed here is ChEMBL document CHEMBL1201862, “PubChem BioAssay data set” (2004).

“And” between values parts separate entries of the source, which are not always exact repeats. Identical values can stand only once.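 1) Cells in 96-well plates. 2) Compound, 48 h, 5 concentrations. 3) Linear interpolation between surrounding doses. 4) Unreached endpoint = highest concentration. GI50 = concentration required for 50% inhibition of growth.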 The source made the active and inactive calls. No stated cut-off is given here; in the data, active = GI50 up to about 1.1 µM and inactive = higher.

The test has as its system NCI-H322M. The experiment in a line: NCI anticancer screen, dose series, 48 h.
As for `O=C(O)C(O)(c1ccc(-c2ccccc2)cc1)c1ccc(-c2ccccc2)cc1`, the GI50 is inactive: 27.9 µM.
As for `CC(C)(C)c1ccc(O)c(CN(Cc2cc(C(C)(C)C)ccc2O)C2CCCCC2)c1`, the GI50 was inactive: 16.3 µM.
For `CCCC(=O)NC1CCc2cc(OC)c(OC)c(OC)c2-c2ccc(OC)c(=O)cc21` (stereo unspecified), the GI50 is active: 0.0112 µM.
On to `COc1ccc(-c2cc(-c3ccccc3)nc(N)n2)c(O)c1`, for which the GI50 is inactive: > 94.4 µM.
In the case of `Cc1cc2c3c(c1)S(=O)(=O)c1cc(Cl)ccc1N3CCC2`, the GI50 is inactive: 70 µM.
As to `CCOC(=O)c1cc(-c2ccc([N+](=O)[O-])cc2)c([N+](=O)[O-])[nH]1`, the GI50 was inactive: > 10 µM.
`CC(=O)O[C@H]1CC2C(C3CC[C@H](C(C)CCC(N)=O)[C@]31C)[C@H](OC(C)=O)C[C@@H]1CC3(CC[C@]21C)OOC1(CCC(C)CC1)OO3` (stereo partly specified): the GI50 was inactive: 4.76 µM and inactive: 8.51 µM.
As to `CC(C)(C)OC(=O)N[C@H]1CC(O)c2ccccc2N(CC(=O)O)C1=O` (stereo partly specified), the GI50 was inactive: > 100 µM.
In the case of `NC(=O)C(=CNC(=S)Nc1ccc(Cl)c(Cl)c1)C(N)=O`, the GI50 is inactive: > 100 µM.
As to `O=C(CC(O)(C(F)(F)F)C(F)(F)F)C(CCCl)C(O)(C(F)(F)F)C(F)(F)F` (stereo unspecified), the GI50 was inactive: 31 µM.
For the molecule `CCOC(=O)/C(=C\c1ccc(C#N)cc1)C(C)=O`, the GI50 was inactive: 28.4 µM.
For `CCOC(=O)C1=C(C)N(Cc2ccccc2)C(C)=C(C(=O)OCC)C1c1ccccc1O`, the GI50 was inactive: 95.9 µM.
The figure for `CCc1cccc(C)c1NC(=O)CCc1nnc2s/c(=C\c3cccc4ccccc34)c(=O)n12` is inactive: > 100 µM; for `O=c1[nH]c(Cc2ccccc2)nc2c1sc1nc3ccccc3n12` it is inactive: > 100 µM.
For the molecule `O=S(=O)(c1ccccc1)C1CC(c2nc3ccccc3[nH]2)=NO1` (stereo unspecified), the GI50 is inactive: > 100 µM.
In the case of `N#Cc1c2c(c(Nc3ccc(F)cc3)n3c1nc1ccccc13)CCC2`, the GI50 is inactive: 10.1 µM.
`CCOC(=O)C1(Cc2ccc3c(c2)CCC3)Cc2cc3c(cc2C1)CCC3`: the GI50 is inactive: 42 µM.
The figure for `CNC(=O)OCC1=C(COC(=O)NC)CN(c2ccccc2)C1` is inactive: > 100 µM.
Take `CN1C(C)(C)CC(=O)C(Br)C1(C)C` (stereo unspecified): the GI50 was inactive: > 100 µM.
In the case of `CC1=C(C#N)C(=O)N(/N=C/c2ccc(Cl)cc2)C(=O)/C1=c1\o/c(=C2/C(=O)N(/N=C/c3ccc(Cl)cc3)C(=O)C(C#N)=C2C)c2nccnc12` it was inactive: > 100 µM.
In the case of `COC(=O)C(Cc1c[nH]c2ccccc12)NC(=O)C(Cc1c[nH]c2ccccc12)NC(=O)OCc1ccccc1` (stereo unspecified), the GI50 was inactive: 20 µM.
Turning to `C[C@]12OC[C@H](c3ccccc3)N1C(=O)C1[C@H]2CC12SCCS2` (stereo partly specified), the GI50 was inactive: > 100 µM.
As for `COC(=O)C(=Cc1cc(OC)c(OC)c(OC)c1-c1cc2c(cc1C(C)=O)OCO2)C(=O)OC`, the GI50 is inactive: 36.5 µM.
The figure for `CCCCCCCCCCCCCCCCNc1nc(=O)n(C2CC(O)C(COP(=O)(O)OC3CC(n4cc(F)c(=O)[nH]c4=O)OC3CO)O2)cc1F` (stereo unspecified) is active: 0.286 µM; for `C=C1CC[C@H]2C(=O)OC(c3ccoc3)C[C@]2(C)C/C=C\C=C/1C(=O)OC` (stereo partly specified) it is inactive: > 25 µM.
On to `COc1cc2nc(-c3cccs3)nc(Cl)c2cc1OC`, for which the GI50 was inactive: > 100 µM.
On to `O=C(CCNC(=O)OCc1ccccc1)OCCCNC(=O)OCc1ccccc1`, for which the GI50 is inactive: > 100 µM.
With `COc1cc(C2c3cc4c(cc3OC3(O)COC(=O)C23)OCO4)cc(OC)c1OC` (stereo unspecified), the GI50 is inactive: 44.5 µM.
In the case of `COc1ccc(/N=N/C(=O)NC(CC(C)C)C(=O)NC(CC(C)C)C(=O)O)cc1` (stereo unspecified), the GI50 is inactive: > 100 µM.
The figure for `Cc1ccc([C@@H]2[C@@H](C(=O)c3ccccn3)[C@H](c3ccc(C)cc3)C[C@](O)(c3ccccn3)[C@H]2C(=O)c2ccccn2)cc1` is inactive: 1.46 µM.
The figure for `CC1(C)Oc2ccc3c(=O)c4ccccc4oc3c2C1C(=O)O` (stereo unspecified) is inactive: > 100 µM; for `COc1cc(C2C3C=CC=C4CC=CC(=C43)C3CCC(=O)N32)cc(OC)c1OC` (stereo unspecified) it is inactive: > 100 µM.
Regarding `CC(=O)c1ccc2c3c1[C@@H]1O[C@@H]1c1cccc(c1-3)[C@@H]1O[C@H]21`, the GI50 was inactive: 15.1 µM.
Consider `Cc1ccc(/N=N/c2c(O)c(C(=O)O)cc3ccccc23)cc1C`, for which the GI50 is inactive: > 100 µM.
In the case of `COC1/C=C/C(C)C(C(C)C(OC)C(C)CCC(=O)C(C)C(CC(=O)O)OC)OC(=O)/C=C/C=C(\C)CC(OC)CC2=CC(=O)O[C@H](C2)C(C)C(OC)CC(OC)/C=C/C(C)C(OC)C1` (stereo partly specified), the GI50 was inactive: 1.75 µM.
Turning to `COc1ccc(C(=O)C(C(=O)CCC(=O)Nc2ccc(C)c(C)c2)c2ccc(OC)cc2)cc1` (stereo unspecified), the GI50 was inactive: > 100 µM.
Regarding `NC1CC(=O)c2c(Cl)sc(Cl)c21` (stereo unspecified), the GI50 was inactive: 12.2 µM.
For the molecule `CC(C)[Si](OCC/C=C/C1CCC(=O)C1C(O)C1CCCCC1)(C(C)C)C(C)C` (stereo unspecified), the GI50 was inactive: 15.4 µM.
For the molecule `Cc1ccc2c(c1)SC1=Nc3sc4cc(C)ccc4[n+]3CN12`, the GI50 was inactive: 17.8 µM.
`CC1(c2ccc(F)cc2)CC(c2ccc(F)cc2)=C(C#N)C(=C(C#N)C#N)N1` (stereo unspecified): the GI50 was inactive: 14.6 µM.
Take `CC(=O)C(=C(I)I)c1ccccc1`: the GI50 is inactive: 18.3 µM.
The figure for `C=CC(CBr)CCC(Br)C(C)(C)Br` (stereo unspecified) is inactive: > 10 µM; for `Cn1cc(C(=O)c2ccccc2)cc(C(=O)c2ccccc2)c1=O` it is inactive: > 100 µM.
In the case of `N#Cc1ccccc1NC(=O)C(=O)C(C(=O)c1ccccc1-c1ccccc1)C1OC(=O)c2ccccc21` (stereo unspecified) it was inactive: 15.5 µM; in that of `OCC(Cn1cncn1)(c1ccc(F)cc1F)n1cncn1` (stereo unspecified), inactive: > 100 µM.
As to `O=C(CCc1ccc(O)c(O)c1)NCCc1cc(O)cc(OCc2ccccc2)c1`, the GI50 was inactive: 34.1 µM.
In the case of `CSc1nc(SC)c2c(C)cn(COCCOC(=O)c3ccccc3)c2n1` it was inactive: > 100 µM; in that of `C=C1c2cc3c(cc2CC12Cc1cc4c(cc1C2=O)CCC4)CCC3` (stereo unspecified), inactive: > 100 µM; in that of `CNn1c(-c2ccc(C)cc2)n[nH]c1=O`, inactive: > 100 µM.
Take `CC1(C)OC(=O)CC12CCN(Cc1ccccc1)CC2`: the GI50 was inactive: > 100 µM.
`O=Cc1[nH]c(=O)[nH]c(=O)c1C(=O)O`: the GI50 was inactive: > 100 µM.
As for `O=C(O)CCC(NC(=O)c1ccc(Nc2cnc3ccc(C(F)(F)F)cc3n2)cc1)C(=O)O` (stereo unspecified), the GI50 was inactive: > 100 µM.
`COC(=O)CN(CC(O)C(NC(C)=O)C(O)C=O)C(=O)OCc1ccccc1` (stereo unspecified): the GI50 was inactive: > 100 µM.
In the case of `O=c1cc(-c2ccc(O)cc2)n(C2CC2)c2ccccc12` it was inactive: 2.81 µM; in that of `CCOP(=O)(OCC)/C(C#N)=C/c1cccn1CC(C)C`, inactive: > 100 µM.
Take `COC(=O)c1ccc2c(c1)CC1(C2)Cc2cc3c(cc2C1=O)CCC3` (stereo unspecified): the GI50 is inactive: 27 µM.
As for `Cc1c(-c2ccccc2)c(C#N)c2nnn(C)c(=O)n12`, the GI50 was inactive: > 100 µM.
On to `C/C=C1/CCC2c3[nH]c4ccccc4c3CCN2C1` (stereo unspecified), for which the GI50 is inactive: > 100 µM.
For `O=C(NC(Cc1ccccc1)(Cc1ccc(O)cn1)C(=O)O)c1ccccc1` (stereo unspecified), the GI50 is inactive: > 100 µM.
`N#CC(C#N)=Cc1ccc(C(O)P(=O)(O)O)cc1` (stereo unspecified): the GI50 was inactive: > 100 µM.
As to `O=C1NCC2(CCN(Cc3ccccc3)CC2)N1`, the GI50 was inactive: > 100 µM.
Consider `N#Cc1c(N2CCOCC2)ncn(-c2ccc(Cl)cc2)c1=O`, for which the GI50 is inactive: > 100 µM.
On to `OC1(c2ccccc2)CSc2ncnn21` (stereo unspecified), for which the GI50 was inactive: > 100 µM.
On to `COc1cc(S(=O)(=O)Nc2ccc(-c3csc(N)n3)cc2)ccc1Cl`, for which the GI50 is inactive: 20.8 µM.
With `CCOC(=O)C(=O)Nc1c(CC)cccc1C(C)C`, the GI50 is inactive: > 100 µM.
In the case of `O=C(NC1(C(=O)O)CC1c1ccccc1)c1ccccc1` (stereo unspecified) it was inactive: > 100 µM; in that of `COc1ccc2o/c(=N\c3ccc(F)cc3)c(C(N)=O)cc2c1`, inactive: 25.4 µM; in that of `CC(=O)OC1COC(N2C(=O)C(=O)c3cc(Br)c([N+](=O)[O-])cc32)C(OC(C)=O)C1OC(C)=O` (stereo unspecified), inactive: > 100 µM.
For the molecule `Cc1ccc(OCC2OC(n3cnc4c(N(C)C)nc(Br)nc43)CC2Oc2ccc(C)cc2)cc1` (stereo unspecified), the GI50 was inactive: > 100 µM.
As to `CCN(CC)CCNC(=O)c1cc2cc(NC(=O)c3cc4cc(N)ccc4[nH]3)ccc2[nH]1`, the GI50 was inactive: 21.6 µM.
In the case of `O=S(=O)(c1cc(Cl)ccc1Cl)N1CCN(c2cccc(Cl)c2)CC1` it was inactive: > 100 µM; in that of `C[C@H]1C2Cc3cc(O)ccc3[C@@]1(C)CCN2CCc1ccc(N)cc1`, inactive: 32.7 µM.
For the molecule `O=C1NC2C3CC(OCc4ccccc4)(OCc4ccccc4)C2OC3O1` (stereo unspecified), the GI50 was inactive: > 50 µM.
With `O=c1oc2ccccc2c2c(=O)c3ccc(OC/C(=N/O)c4ccc(Cl)cc4)cc3oc12`, the GI50 is inactive: 7.55 µM.
For `C[C@H](CCC(=O)O)[C@H]1CC[C@H]2[C@@H]3[C@@H](O)C[C@@H]4C[C@H](O)CC[C@]4(C)[C@H]3CC[C@]12C`, the GI50 is inactive: > 100 µM.
For `C=C1C(=O)C=C2C=C3C(=O)C(C)(C)C[C@]3(O)C12C` (stereo partly specified), the GI50 was inactive: 19.3 µM.
The figure for `O=[N+]([O-])C1C2C=CC(C2)[C@H]1c1ccccc1Cl` (stereo partly specified) is inactive: > 100 µM; for `Clc1ccc(C(c2ccc(Cl)cc2)c2ccccn2)cc1` it is inactive: 21.9 µM.
The figure for `NC(=O)c1ccc2c(c1)S(=O)(=O)c1ccccc1C2=O` is inactive: > 100 µM.
`Cc1ccc(S(=O)(=O)N/C(=N\O)Nc2ccc(Cl)c(Cl)c2)cc1`: the GI50 is inactive: 2.12 µM.
Take `N=C(N)SCCSC(=N)N`: the GI50 is inactive: > 100 µM.
